In PMC4336329 (PLoS ONE, 2015):
Out of some 310,000 compounds screened, about 2,200 (0.71%) showed an effect of 50% or more. Effects have a minus sign here. This is one part of the list.

What follows are molecules tested against human ether-à-go-go-related gene (hERG) potassium channel (human, UniProt Q12809) (assay: primary screen, population patch clamp on CHO cells stably expressing hERG).
Chain of human ether-à-go-go-related gene (hERG) potassium channel (Q12809 whole entry, looked up): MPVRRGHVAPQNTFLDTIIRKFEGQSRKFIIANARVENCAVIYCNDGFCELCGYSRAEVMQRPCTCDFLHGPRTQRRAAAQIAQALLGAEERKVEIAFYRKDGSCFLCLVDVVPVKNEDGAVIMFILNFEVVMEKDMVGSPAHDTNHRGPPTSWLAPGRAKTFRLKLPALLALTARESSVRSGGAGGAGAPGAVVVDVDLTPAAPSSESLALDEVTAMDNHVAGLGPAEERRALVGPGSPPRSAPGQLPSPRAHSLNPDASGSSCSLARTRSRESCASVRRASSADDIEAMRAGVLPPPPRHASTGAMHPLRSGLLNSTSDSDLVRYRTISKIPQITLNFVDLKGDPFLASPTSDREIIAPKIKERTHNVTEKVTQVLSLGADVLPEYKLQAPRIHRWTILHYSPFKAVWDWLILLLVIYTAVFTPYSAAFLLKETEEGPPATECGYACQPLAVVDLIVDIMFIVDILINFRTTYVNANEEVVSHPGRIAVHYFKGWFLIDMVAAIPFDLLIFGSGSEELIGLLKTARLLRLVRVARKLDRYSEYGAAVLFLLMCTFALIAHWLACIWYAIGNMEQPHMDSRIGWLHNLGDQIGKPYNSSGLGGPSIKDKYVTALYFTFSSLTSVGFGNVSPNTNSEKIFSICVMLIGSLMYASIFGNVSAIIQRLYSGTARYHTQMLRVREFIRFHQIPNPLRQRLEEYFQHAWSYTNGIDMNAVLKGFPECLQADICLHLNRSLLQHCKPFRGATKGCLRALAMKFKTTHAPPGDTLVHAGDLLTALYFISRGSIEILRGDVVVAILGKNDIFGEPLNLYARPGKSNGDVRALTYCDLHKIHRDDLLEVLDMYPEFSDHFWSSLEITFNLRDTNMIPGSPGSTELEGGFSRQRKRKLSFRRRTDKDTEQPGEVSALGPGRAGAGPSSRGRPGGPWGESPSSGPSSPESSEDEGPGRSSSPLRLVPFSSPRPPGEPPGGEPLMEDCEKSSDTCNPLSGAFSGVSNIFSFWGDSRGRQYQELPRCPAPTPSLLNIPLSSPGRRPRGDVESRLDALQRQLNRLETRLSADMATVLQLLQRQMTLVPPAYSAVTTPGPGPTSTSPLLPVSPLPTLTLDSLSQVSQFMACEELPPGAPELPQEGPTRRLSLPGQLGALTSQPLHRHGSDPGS

| Structure (SMILES) | hERG current change (%, negative = inhibition) at 1uM |
| --- | --- |
| C=CCSc1nc2ccccc2n1C(=O)/C=C/c1ccc(OC)c(OC)c1 | -4.26% |
| Cc1ccc(CN2CCNC(=O)C2CC(=O)NCCCn2cccn2)o1 (centres unmarked) | 6.47% |
| CN(C)CCCNC(=S)/N=c1\sccn1Cc1ccccc1Cl | -0.0435% |
| Nc1ccccc1SCC(=O)Nc1ccc2c(c1)OCCO2 | 11.9% |
| Cc1ccsc1CN(C)C(=O)CN1C(=O)NC(c2ccccc2)(c2ccccc2)C1=O | -1.56% |
| CC(C)c1ccccc1OCC(=O)Nc1cc(S(=O)(=O)N2CCOCC2)ccc1N1CCCC1 | 10.4% |
| O=C(CSc1nc2cc(Cl)ccc2s1)NCc1ccc2c(c1)OCO2 | 3.04% |
| Cc1cccc(NC(=O)CCNC(=O)c2ccccc2Cl)n1 | 8.39% |
| COC(=O)CSc1nnc2c3c4c(sc3nc(-n3nc(C)cc3C)n12)COC(C)(C)C4 | 12.8% |
| Brc1ccc(-c2nnc(-c3ccco3)o2)cc1 | -4% |
| O=c1[nH]c(NCCO)nc2ncn(Cc3ccccc3)c12 | 21.8% |
| COc1cc(NC(=O)COC(=O)c2ccc(C)c(S(=O)(=O)N3CCCCC3)c2)c(C)cc1[N+](=O)[O-] | 9.19% |
| Cc1ccc(C(=O)N2CC(C)OC(C)C2)cc1S(=O)(=O)N1CCCCC1 (centres unmarked) | 11.7% |
| COc1cc(NC(=S)NCCSc2ccc(C)cc2)cc(OC)c1 | 5.75% |
| Oc1cnc2ccccc2c1CN1CCOCC1 | 21.2% |
| Cc1ccc(NC(=O)Cn2cc(C(=O)C3CC3)c3ccccc32)cc1 | 16.1% |
| COc1ccc(Br)cc1S(=O)(=O)N(CC(=O)N1CCOCC1)c1ccccc1 | -22.2% |
| O=C(Nc1ccn(Cc2ccccc2)n1)c1ccc(F)cc1 | 16.4% |
| Cc1cc(-c2nc(C)c(C(=O)NNS(=O)(=O)c3ccccc3)s2)no1 | 16.7% |
| O=C(NCCc1cccc(Cl)c1)c1ccc(Cl)c([N+](=O)[O-])c1 | -0.411% |
| CC(=O)NC(Cc1cccc(F)c1)C(=O)NC1CCN(C(=O)c2ccc(C)cc2)CC1 (centres unmarked) | 22.1% |
| Cc1nc(C(C)NC(=O)c2ccc(OC3CCN(Cc4ccccn4)CC3)cc2)c(C)s1 (centres unmarked) | 7.38% |
| CCOc1ccc(NCc2nnc(SCc3ccc(Cl)cc3)n2-c2ccccc2)cc1 | 15.2% |

| Structure (SMILES) | hERG current change (%, negative = inhibition) at 1uM |
| --- | --- |
| CN1CCC(n2nccc2N)CC1 | 16.4% |
| COc1ccccc1N(CC(=O)N(CC(C)C)CC(C)C)S(=O)(=O)c1cccs1 | 8.07% |
| CCOCCCn1c(=S)[nH]c2cc(C(=O)NCCc3ccccc3)ccc2c1=O | 12.9% |
| CC12CCC(C(=O)N/N=C/c3ccc(O)cc3O)(OC1=O)C2(C)C (centres unmarked) | 12.4% |
| Cc1nc(SC(C)C(=O)Nc2c(C)n(C)n(-c3ccccc3)c2=O)nc(C)c1C (centres unmarked) | 4.82% |
| O=C(COc1ncnc2ccccc12)Nc1cc([N+](=O)[O-])ccc1F | 1.17% |
| CC(=O)Nc1sc2c(c1C(c1ccncc1)N1CCOCC1)CCCC2 (centres unmarked) | 7.4% |
| Cc1cc2oc(=O)cc(CN3CCCCC3C)c2cc1C(C)C (centres unmarked) | -6.44% |
| CCN(CC(=O)Nc1ccccc1C(F)(F)F)C(=O)c1ccc(N2C(=O)CCC2=O)cc1 | 11% |
| CCCCN1C(=O)NC(=O)C2(Cc3ccccc3N3CCOCC32)C1=O (centres unmarked) | 20.9% |
| Cc1ccn2c(=O)c(NC(=O)c3cccc4ccccc34)c(C)nc2c1 | 14.6% |
| CCNC(=O)NCc1c(C)c(C)n(Cc2ccccc2)c1-n1cccc1 | 2.48% |
| Cc1ccc(S(=O)(=O)Nc2ccc(NC(=O)/C=C/C(=O)O)cc2)cc1 | 6.47% |
| Cc1[nH]nc2c1C(c1ccsc1)C1=C(CC(C)(C)CC1=O)N2 (centres unmarked) | 23.7% |
| S=C(NCc1ccc(Cl)cc1)NCc1ccco1 | 16.5% |
| Cc1cccc(NC(=O)c2ccccc2OCC(=O)c2ccc(F)cc2)c1 | 2.1% |
| CC1CCCC(NC(=O)CCNC(=O)c2ccccc2Cl)C1C (centres unmarked) | 7.25% |
| CCOCCCNC(=O)NC(=O)CN1CCN(S(=O)(=O)c2ccc3c(c2)OCCO3)CC1 | 8.73% |
| COC(=O)c1cn(NC(=O)c2ccc([N+](=O)[O-])c(C)c2)c(=O)c2ccccc12 | -3.22% |
| CNC(=O)C(=O)Nc1cc2c3c(c1)CCC(=O)N3CCC2 | 5.98% |
| O=C(NC1=NCCS1)c1cccc(F)c1 | 13.3% |
| NC(=O)CCN1CCN(Cc2nc(C(c3ccccc3)c3ccccc3)no2)CC1 | 12.6% |
| COc1ccccc1/C=C/CN1CC(C)OC(C)C1 (centres unmarked) | 7.99% |

| Structure (SMILES) | hERG current change (%, negative = inhibition) at 1uM |
| --- | --- |
| Cc1nc2sccn2c1P(c1c(C)nc2sccn12)c1c(C)nc2sccn12 | 6% |
| CC(NC(=O)c1cc(S(=O)(=O)N2CCOCC2)ccc1F)c1ccc(-n2ccnc2)cc1 (centres unmarked) | -24.6% |
| COC(=O)C1=CN(C2CC2)C=C(C(=O)OC)C1c1ccccc1OC | -5.84% |
| Cc1cccc(/C=N/NC(=O)c2ccc(F)cc2)n1 | 13% |
| COc1ccc(/C=N/NC(=O)Cn2c(Cc3ccc(OC)c(OC)c3)nc3ccccc32)cc1OC | 15.3% |
| O=C(c1ccc(CS(=O)Cc2ccc(Cl)cc2)o1)N1CCN(c2ccc(F)cc2)CC1 (centres unmarked) | -11.6% |
| Cc1ccc(N(C)S(=O)(=O)c2c[nH]c3ccc([N+](=O)[O-])cc23)cc1 | 19.3% |
| COc1ccc(Nc2oc(COc3ccc(C)cc3)nc2C#N)cc1 | -18.4% |
| O=C(CCc1nnc(CCCCc2ccccc2)o1)NCCC1CCCCO1 (centres unmarked) | 9.06% |
| CCOc1ccc(/C=C2\N=C(c3cccs3)OC2=O)cc1OC | 10.2% |
| CCN1C(=O)[C@@H]2[C@H](C1=O)[C@@H]1C(=O)Nc3ccccc3C(=O)N1[C@@H]2c1cccc(C)c1 | -7.81% |
| Cc1nn(C)cc1C(C)Nc1nc2nonc2nc1N1CCCCC1 (centres unmarked) | 10.6% |
| COc1ccc(CC(=O)Nc2ccc(N3CCOCC3)cc2)cc1S(=O)(=O)N1CCOCC1 | 3.1% |
| COc1ccccc1N1CCN(C(=O)C2CCCO2)CC1 (centres unmarked) | 16.8% |
| CCC(C)CCN1C(Nc2ccccc2)=NC[C@@H]1CC(C)C (some centres unmarked) | -11.6% |
| CCCn1c(SCc2nc3ccccc3s2)n[nH]c1=O | 4.66% |
| S=C1Cc2ccccc2C(c2ccc(Cl)cc2)N1 (centres unmarked) | 5.13% |
| CCOc1cc(/C=C(\C#N)C(N)=O)ccc1OS(=O)(=O)c1ccccc1 | 2.75% |
| CCN(CC)CCCN(Cc1cc2cc3c(cc2[nH]c1=O)OCCO3)C(=O)Nc1ccccc1 | -2.3% |
| O=C(COC(=O)/C=C/c1cccc(Br)c1)NCCc1ccccc1 | 6.43% |
| COc1ccc(NC(=O)c2cccc(NC(=O)c3ccccc3)c2)cc1 | 11.4% |
| Cc1ccc(-n2cnc3c(sc4nccc(N(C)C)c43)c2=O)cc1 | 0.658% |
| Cn1c(=O)c2cc3ccccc3nc2n(C)c1=O | 13.9% |

| Structure (SMILES) | hERG current change (%, negative = inhibition) at 1uM |
| --- | --- |
| CC(C)c1cc(Nc2cccc(O)c2)cc(C(C)C)c1O | 11.4% |
| COc1ccc(S(=O)(=O)Nc2ccccc2C(=O)N2CCOCC2)cc1F | 13.8% |
| Cc1cccc(C(=O)Oc2ccccc2-c2nnco2)c1 | 7.77% |
| COc1ccccc1CN1CC(C(=O)N(C)Cc2ccc(C)o2)CCC1=O (centres unmarked) | 7.14% |
| O=C(NCCc1ccccc1)c1ccc(Cl)nc1 | 18% |
| O=C(O)COc1ccccc1C(Nc1ccccn1)c1cc(Cl)c2cccnc2c1O (centres unmarked) | 5.42% |
| COC(=O)c1ccc(C(=O)OC)c(NC(=O)C2CC2)c1 | -15.9% |
| CCC(C)CCN1C(Nc2ccccc2)=NC[C@@H]1C (some centres unmarked) | 7.79% |
| CCOc1ccc(NC(=O)CN(C)C(=O)c2cn3ccccc3n2)cc1OCC | -6.59% |
| Cc1ccccc1NC(=O)CSc1ccc(-c2ccccn2)nn1 | 0.969% |
| Cn1c(=NC(=O)CSCC(=O)N2CCCCC2)sc2ccccc21 | 6.13% |
| N#Cc1nc(COc2ccc(Cl)cc2Cl)oc1N1CCOCC1 | 0.599% |
| O=C(Cn1cc(C(F)(F)F)cc(Cl)c1=O)NCc1ccc(Cl)cc1 | 16.5% |
| CCOc1cc(N2CCOCC2)c(OCC)cc1NC(=O)COC(=O)[C@@H]1CCCN1S(=O)(=O)c1ccccc1F | 2.02% |
| COc1cc(OC)cc(C(=O)NNC(=O)c2ccc(-n3cncn3)c([N+](=O)[O-])c2)c1 | 9.34% |
| O=C(CN1C(=O)C(=O)N(C2CCCC2)C1=O)NCCc1ccc(Cl)cc1Cl | 10.1% |
| O=C(Cc1ccc(F)cc1)NC1CCS(=O)(=O)C1 (centres unmarked) | 5.04% |
| Cn1c(CCc2ccccc2)nnc1SCC(=O)N1CCCC1 | 8.11% |
| S=c1nc(-c2ccccc2)n(CCCn2ccnc2)c2c1CCCC2 | 9.94% |
| COc1cccc(OC)c1C(=O)Nc1ccc(C(=O)c2ccncc2)cc1 | -10.6% |
